In all, about 310,000 compounds went through this assay and about 2,200 (0.71%) showed an effect of 50% or more. The effect is printed as a negative number. The list shows a part of the results.

Sequence of human ether-à-go-go-related gene (hERG) potassium channel (Q12809 whole entry, looked up): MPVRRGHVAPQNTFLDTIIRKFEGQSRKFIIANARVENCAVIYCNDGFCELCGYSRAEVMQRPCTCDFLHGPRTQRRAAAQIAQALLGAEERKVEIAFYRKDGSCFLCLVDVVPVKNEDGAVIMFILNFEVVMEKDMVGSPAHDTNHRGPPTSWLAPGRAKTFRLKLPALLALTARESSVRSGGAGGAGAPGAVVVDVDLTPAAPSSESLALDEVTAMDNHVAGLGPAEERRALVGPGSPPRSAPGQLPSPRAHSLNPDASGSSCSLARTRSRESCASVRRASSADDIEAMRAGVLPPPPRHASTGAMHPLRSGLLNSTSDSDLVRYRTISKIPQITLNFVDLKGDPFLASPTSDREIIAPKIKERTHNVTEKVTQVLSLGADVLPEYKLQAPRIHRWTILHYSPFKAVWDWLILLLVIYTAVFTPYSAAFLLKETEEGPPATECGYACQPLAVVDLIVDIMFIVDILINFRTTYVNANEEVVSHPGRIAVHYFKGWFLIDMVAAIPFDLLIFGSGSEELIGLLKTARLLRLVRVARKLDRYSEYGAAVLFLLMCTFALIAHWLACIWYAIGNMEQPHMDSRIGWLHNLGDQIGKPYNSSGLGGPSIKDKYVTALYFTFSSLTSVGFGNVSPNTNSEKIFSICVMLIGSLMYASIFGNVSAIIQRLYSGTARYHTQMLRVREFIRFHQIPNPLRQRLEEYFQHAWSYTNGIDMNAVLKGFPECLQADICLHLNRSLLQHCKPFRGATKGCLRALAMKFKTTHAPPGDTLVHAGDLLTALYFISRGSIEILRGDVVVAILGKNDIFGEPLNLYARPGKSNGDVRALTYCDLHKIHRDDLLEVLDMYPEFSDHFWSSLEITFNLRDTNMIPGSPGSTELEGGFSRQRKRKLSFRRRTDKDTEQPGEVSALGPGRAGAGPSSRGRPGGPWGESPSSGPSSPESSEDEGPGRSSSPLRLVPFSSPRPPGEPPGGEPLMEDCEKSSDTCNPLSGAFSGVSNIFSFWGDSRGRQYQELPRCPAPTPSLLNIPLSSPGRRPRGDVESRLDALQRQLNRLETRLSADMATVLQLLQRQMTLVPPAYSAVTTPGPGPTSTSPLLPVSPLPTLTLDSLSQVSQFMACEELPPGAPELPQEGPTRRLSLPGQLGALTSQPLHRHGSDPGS

This assay has as its target human ether-à-go-go-related gene (hERG) potassium channel (human, UniProt Q12809). Briefly: primary screen, population patch clamp on CHO cells stably expressing hERG.
Consider `O=C(COc1ccc(S(=O)(=O)N2CCCC2)cc1Cl)N1CCN(c2ccccc2)CC1`, for which the “hERG current change (%, negative = inhibition) at 1uM” value is recorded as -4.84%. For the molecule `O=C(CSc1ccc(F)cc1)Nc1ccc(N2CCOCC2)c(Cl)c1`, the “hERG current change (%, negative = inhibition) at 1uM” value was 8.55%.

For `Cc1cc(O)c(NC(=O)c2ccco2)cc1C`, the “hERG current change (%, negative = inhibition) at 1uM” value was 7%.

`O=C(COC(=O)/C(=C/c1cccs1)c1cccs1)NCc1ccccc1Cl`: the “hERG current change (%, negative = inhibition) at 1uM” value is listed as 7.49%. Consider `CCOc1ccc(NC(=O)CSc2nnc(-c3ccncc3)n2CC2CCCO2)cc1` (stereo not shown), for which the “hERG current change (%, negative = inhibition) at 1uM” value came to 7.6%. As to `CS(=O)(=O)N1CCC(Oc2cccc(C(=O)NCCCOc3cccnc3)c2)CC1`, the “hERG current change (%, negative = inhibition) at 1uM” value was 1.51%.

Regarding `C/C=C/C(=O)Nc1nnc(-c2ccccc2C)s1`, the “hERG current change (%, negative = inhibition) at 1uM” value was found to be 2.82%. With `COc1cccc(NC(=O)Cc2cn(C)c3ccccc23)c1` the figure was 5.36%. Consider `Cc1c(C)c2ccc(OCC(=O)N[C@@H](Cc3ccccc3)C(=O)O)cc2oc1=O`, for which the “hERG current change (%, negative = inhibition) at 1uM” value was found to be 18.5%.

Turning to `Cl.O=C(CSC1=NCCN1)Nc1cccc(C(F)(F)F)c1`, the “hERG current change (%, negative = inhibition) at 1uM” value is recorded as -8.1%. For the molecule `O=C(Cn1cnc2ccccc21)Nc1cccc([N+](=O)[O-])c1`, the “hERG current change (%, negative = inhibition) at 1uM” value is recorded as 11.1%. With `CCCn1cc(SCC(=O)NC2CCCC2)c2ccccc21` the figure was 11.4%. For `Cc1cc(Oc2ccc(=O)n(C)n2)nc(=S)[nH]1`, the “hERG current change (%, negative = inhibition) at 1uM” value is given as 11%.

For `CCCc1ccc(-c2c(C)sc(NC(=O)c3ccnn3C)c2C#N)cc1`, the “hERG current change (%, negative = inhibition) at 1uM” value came out at 10.6%.

On to `Cc1ccc(NC(=S)NCCCN2CCOCC2)cc1C`, for which the “hERG current change (%, negative = inhibition) at 1uM” value is given as 7.13%.

Turning to `COC(=O)c1cc(NC(=S)Nc2cc(Cl)cc(Cl)c2)cc(C(=O)OC)c1`, the “hERG current change (%, negative = inhibition) at 1uM” value is -4.12%. As for `NC(=O)Cc1cn(-c2ncc(C(F)(F)F)cc2Cl)c2ccccc12`, the “hERG current change (%, negative = inhibition) at 1uM” value is listed as -3.61%. Turning to `O=c1[nH]c(-c2ccccc2)c(-c2ccccc2)nc1[N+](=O)[O-]`, the “hERG current change (%, negative = inhibition) at 1uM” value is on record as 12.1%. With `O=C(NCC1CCCO1)C(c1cccnc1)N(C(=O)Cc1cccs1)c1ccccc1` (stereo not shown) the figure was 13.8%; with `CC(=O)N1CCN(Cc2nc3cc(NC(=O)NC4CCCCC4)ccc3n2C)CC1`, 12.9%; with `Cc1cccc(-n2c(=S)[nH]c3nc4c(cc3c2=O)COC(C)(C)C4)c1`, 11.9%. Turning to `COc1cccc(-c2nc3ccccc3c(=O)n2NC(=O)c2cccnc2Cl)c1`, the “hERG current change (%, negative = inhibition) at 1uM” value was determined as 16.6%. In the case of `COC(=O)c1cc(Nc2cc(C)c3c(O)cccc3n2)cc(C(=O)OC)c1`, the “hERG current change (%, negative = inhibition) at 1uM” value is recorded as 0.104%.

Take `CC(=O)NC1(c2ccccc2)CCN(c2cc(C)nc(-c3ccccc3)n2)CC1`: the “hERG current change (%, negative = inhibition) at 1uM” value is recorded as -1.62%. For `CCOc1ccc(/C=C/C(=O)OCC(=O)NCCc2ccc(OCC)c(OCC)c2)cc1OC`, the “hERG current change (%, negative = inhibition) at 1uM” value is on record as -1.72%.

Consider `CCC(C)(C)n1nnnc1C(c1cc2cc(C)ccc2[nH]c1=O)N1CCCC1` (stereo not shown), for which the “hERG current change (%, negative = inhibition) at 1uM” value is -0.91%. For `Cc1ccc(NCc2ccc(Cl)nc2)c(NCc2ccc(Cl)nc2)c1`, the “hERG current change (%, negative = inhibition) at 1uM” value is recorded as 6.92%. As to `COc1cc(CNc2ncn[nH]2)cc(Br)c1OC`, the “hERG current change (%, negative = inhibition) at 1uM” value came to 11.6%. As to `CCOC(=O)C1(CCOC)CCN(C(=O)c2sccc2C)CC1`, the “hERG current change (%, negative = inhibition) at 1uM” value was determined as 13%. As to `CC(=O)CCC(=O)N1CCCC(N2CCN(c3cccc(Cl)c3)CC2)C1` (stereo not shown), the “hERG current change (%, negative = inhibition) at 1uM” value is 8%. Take `CC(C)(C)NC(=O)NC(=O)CSc1ncc(C(F)(F)F)cc1Cl`: the “hERG current change (%, negative = inhibition) at 1uM” value is 2.07%.

Consider `CC(C)(C)c1ccc(C(=O)NCC(=O)OCCN2C(=O)c3ccccc3C2=O)cc1`, for which the “hERG current change (%, negative = inhibition) at 1uM” value worked out at 9.49%. Turning to `O=C(CN(c1cccc(Cl)c1)S(=O)(=O)c1ccc(Cl)cc1)NCc1ccccn1`, the “hERG current change (%, negative = inhibition) at 1uM” value is reported as -9.69%. For `CC(C)(C)C(=O)Nc1cc(S(=O)(=O)Nc2ccc(Cl)cc2)ccc1Cl`, the “hERG current change (%, negative = inhibition) at 1uM” value turned out to be 1.82%. As for `O=[N+]([O-])c1ccc(N2CCN(c3ccccc3O)CC2)c(Cl)c1`, the “hERG current change (%, negative = inhibition) at 1uM” value came out at 10.6%. Turning to `COc1ccc(N2C(=O)CC(N3CCC(C(N)=O)CC3)C2=O)cc1` (stereo not shown), the “hERG current change (%, negative = inhibition) at 1uM” value is recorded as 10.2%. With `O=C(CNC(=O)c1ccc2c(c1)OCCO2)N/N=C/c1ccc(Cl)cc1` the figure was 14.4%; with `CCOc1cc(Br)cc(/C=C2\SC(=Nc3ccccc3)NC2=O)c1O`, 19.6%; with `O=C(/C=C/c1ccc(F)cc1)NC(=S)NNC(=O)[C@H]1C[C@@H]1c1ccccc1`, 11.6%. With `COc1ccc(CNC(C)C2COc3ccccc3O2)c(OC)c1.O=C(O)C(=O)O` (stereo not shown) the figure was -22.2%. Consider `Cc1nn(Cc2ccccc2)c(C)c1C(=O)NCCCN1CCCC1=O`, for which the “hERG current change (%, negative = inhibition) at 1uM” value is -5.45%. For the molecule `CCOc1ccc(NC(=O)CSc2nc3c(c(=O)n2C)SC(C)C3)cc1` (stereo not shown), the “hERG current change (%, negative = inhibition) at 1uM” value was 9.29%.

On to `CCN1CCN(c2oc(COc3ccc(-c4ccccc4)cc3)nc2C#N)CC1`, for which the “hERG current change (%, negative = inhibition) at 1uM” value turned out to be 10.1%. Consider `COc1cc(NC(=O)c2ccccc2)c(OC)cc1NC(=O)CN1C(=O)NC2(CCCCC2C)C1=O` (stereo not shown), for which the “hERG current change (%, negative = inhibition) at 1uM” value was 5.92%. Take `Cc1ccc(CSCc2ccc(C(=O)NC3CCCC3)o2)cc1`: the “hERG current change (%, negative = inhibition) at 1uM” value is given as -11.2%. For the molecule `O=C(COc1ccc(Cl)cc1)NNC(=O)C(=O)N1CCCCC1`, the “hERG current change (%, negative = inhibition) at 1uM” value is reported as -2.26%.

With `O=C(CCn1c(=O)c2cccn2c2ccc(F)cc21)NCc1cccc(F)c1`, the “hERG current change (%, negative = inhibition) at 1uM” value was determined as 1.76%. Take `NC(=O)c1ccccc1[N+](=O)[O-]`: the “hERG current change (%, negative = inhibition) at 1uM” value is on record as 9.84%. With `COc1ccc(Nc2cc(C(=O)NCc3ccccn3)c3ccccc3n2)c(OC)c1` the figure was 16.7%; with `CCC(=NCCc1ccccc1)c1c(O)n(C2CCCCC2)c(=O)[nH]c1=O`, 6.79%; with `CC(=O)NC(C)C12CC3CC(CC(C(=O)O)(C3)C1)C2` (stereo not shown), 15.6%. On to `CCOC(=O)N1CCN(C(=O)c2ccc(CNS(=O)(=O)c3ccc(C)cc3)cc2)CC1`, for which the “hERG current change (%, negative = inhibition) at 1uM” value is reported as -13.4%. With `O=C(COC(=O)c1cc(S(=O)(=O)N2CCCCC2)ccc1N1CCOCC1)NCCc1ccc(F)cc1` the figure was -1.34%; with `Cn1ncc(Br)c1NC(=O)c1cc(Cl)cc(Cl)c1`, -6.02%; with `O=C(NCCC1=CCCCC1)c1ccc2c(=O)n3c(nc2c1)CCCCC3`, -1.26%.

(Values after PMC4336329 (PLoS ONE, 2015).)
